# This is one part of the list. Sequences were assembled here from the parent chain. Values near 0.05 are background.
# B1: TEV protease; numbered along this chain (parent)
# chain: MGESLFKGPRDYNPISSSICHLTNESDGHTTSLYGIGFGPFIITNKHLFRRNNGTLVVQSLHGVFKVKDTTTLQQHLVDGRDMIIIRMPKDFPPFPQKLKFREPQREERICLVTTNFQTKSMSSMVSDTSCTFPSGDGIFWKHWIQTKDGQCGSPLVSTRDGFIVGIHSASNFTNTNNYFTSVPKNFMELLTNQEAQQWVSGWRLNADSVLWGGHKVFMVKPEEPFQPVKEATQL
# Variants of: B1
# Test: raw area under fraction-flipped curve 0-4 h after induction (AUC4h, not background-subtracted), DNA-recorder readout of cleavage of the substrate (dimensionless); higher = more cleavage of the substrate by the protease variant
# Conditions: temperature: 34 °C; time window: 0-4 h after rhamnose induction
# Protocol: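 In vivo DNA recorder in E. coli TOP10(DE3) ΔrhaA at 34 °C. Each TEVp single-site mutant (parent TEVp 0) is paired with a single-site variant of the 7-mer TEVs (canonical ENLYFQ|S). The substrate sits between flexible linkers in a Bxb1-sfGFP-TEVs-SsrA fusion, so cleavage stabilises Bxb1 and speeds flipping of a recombination array, read by NGS. The value is the raw area under the fraction-flipped curve over 0-4 h after rhamnose induction (AUC4h), with ≥20 reads per time point. It is not background-subtracted; inactive controls average about 0.047.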
# 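Note: Bxb1 expression induced with 0.2% (w/v) L-rhamnose at OD600 near 0.5, cultures sampled hourly, flipped fraction per protease–substrate barcode pair counted by paired-end Illumina sequencing.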
Variant,area with substrate CNLYFQS,area with substrate FNLYFQS,area with substrate GNLYFQS,area with substrate HNLYFQS,area with substrate KNLYFQS,area with substrate MNLYFQS,area with substrate PNLYFQS,area with substrate SNLYFQS,area with substrate TNLYFQS,area with substrate WNLYFQS,area with substrate YNLYFQS,area with substrate LNLYFQS,area with substrate NNLYFQS,area with substrate RNLYFQS,area with substrate QNLYFQS,area with substrate INLYFQS,area with substrate VNLYFQS
T70N,0.0585,0.0475,0.0505,0.0534,0.0505,0.0652,0.047,0.0527,0.052,0.0527,0.0423,–,–,–,–,–,–
T70K,0.0527,–,–,0.126,–,–,0.0743,–,0.0585,0.0364,0.0559,0.0541,–,–,–,–,–
G138S,0.0472,0.0542,0.0535,0.0614,–,–,–,–,0.117,–,–,–,0.0583,0.053,–,–,–
C111P,0.0618,–,–,0.0282,0.0556,–,0.0436,–,0.0504,0.0506,–,–,–,–,0.0665,–,–
G202P,0.0539,0.0475,0.0514,0.0443,0.0889,0.0542,–,0.0593,–,0.0595,0.0588,–,0.0473,0.0694,–,0.0667,–
I43Y,0.0369,–,0.0511,0.0505,–,0.0551,0.0506,–,0.05,0.044,0.0508,–,–,–,0.0739,0.0512,–
S182P,0.0518,0.0514,–,0.0724,–,0.068,0.0658,–,–,0.0651,–,0.0491,0.0561,–,–,0.0542,–
T119D,0.048,–,–,0.0678,0.0742,–,0.0681,0.0678,0.0626,0.068,–,0.0194,0.0304,–,–,–,–
V165W,0.0495,–,0.0552,0.0395,0.0578,0.0515,0.0523,–,0.0595,0.0465,0.0553,0.0553,–,–,–,0.0433,–
G153K,0.0891,–,0.045,0.046,0.0432,0.0486,0.0465,0.0528,–,–,–,0.0322,–,–,–,–,–
K230Y,0.0754,0.0598,–,–,0.0688,–,–,–,–,0.0169,0.0695,0.0841,0.0381,–,–,0.0678,0.0743
I145L,0.0648,–,–,–,0.0634,–,0.0538,–,0.0608,0.0789,–,–,–,–,0.0554,–,–
I139C,0.0697,0.0656,0.105,0.0523,–,–,–,0.0696,–,0.0616,0.0521,0.0865,–,–,–,0.0792,–
D82P,0.059,–,–,–,–,0.0561,–,0.0494,0.0467,0.0572,0.0632,–,–,0.0534,–,–,0.0559
F101L,0.0583,–,0.0552,0.0615,–,–,0.0626,–,–,–,–,0.0663,–,0.0551,–,–,–
S26Y,0.0751,–,–,0.0487,0.0651,0.0623,0.0466,0.0833,0.07,–,0.0792,–,–,0.0689,–,0.0599,–
G150D,0.0602,0.0485,0.0914,0.0527,–,–,0.0625,–,0.055,–,0.0514,–,–,–,–,–,–
G2R,0.0703,–,–,0.0684,0.0686,0.0739,–,–,–,–,–,0.0642,0.0606,–,–,–,–
V67K,0.051,0.0567,–,0.0488,0.0622,0.0553,–,0.0522,0.051,0.0572,–,–,0.0551,–,–,0.0359,–

Variant,area with substrate CNLYFQS,area with substrate FNLYFQS,area with substrate GNLYFQS,area with substrate HNLYFQS,area with substrate KNLYFQS,area with substrate MNLYFQS,area with substrate PNLYFQS,area with substrate SNLYFQS,area with substrate TNLYFQS,area with substrate WNLYFQS,area with substrate YNLYFQS,area with substrate LNLYFQS,area with substrate NNLYFQS,area with substrate RNLYFQS,area with substrate QNLYFQS,area with substrate INLYFQS,area with substrate VNLYFQS
V67P,0.0313,–,–,0.0386,0.0305,0.0378,0.0438,0.0354,0.0452,–,0.0181,0.0242,–,–,–,0.0548,–
V67F,0.066,0.0715,–,0.0627,0.0655,0.0738,–,–,–,0.0376,–,0.0504,0.047,–,–,–,–
V67Y,0.0653,–,–,0.0605,0.0553,0.0581,0.0377,0.0641,–,–,0.0746,0.0778,–,–,–,–,–
E107R,0.0824,0.0673,0.0688,0.0662,–,–,0.0798,–,–,0.048,–,0.0709,0.0642,–,–,0.0539,–
N172I,0.0723,0.0468,–,0.0508,–,0.0368,–,–,0.0547,0.0585,0.0475,0.0557,0.0523,–,–,0.0719,0.0767
N172G,0.0538,0.0552,0.0583,0.0531,0.0581,0.0433,0.0705,–,0.0409,0.0556,–,0.0614,0.0515,–,–,–,–
Q146S,0.0608,0.0684,–,0.0743,–,–,–,–,0.0541,–,0.0619,0.0448,–,–,0.0856,0.0614,–
S123Y,0.0517,0.0687,0.0836,0.0694,–,–,–,0.0584,0.0669,0.0685,–,–,0.0651,–,0.0844,–,0.0647
F180M,0.0574,–,–,0.0726,0.0749,–,–,–,–,0.0565,–,–,–,–,–,–,0.0625
R87F,0.0618,0.061,0.0648,0.0756,–,–,0.0672,0.0615,0.0623,0.0664,0.0594,0.0719,0.0607,–,0.0604,–,0.0595
P93T,0.0494,–,0.0734,0.0509,–,–,0.0474,–,0.0636,0.0635,–,–,0.0703,–,–,–,0.0598
F226R,0.0802,–,0.0656,–,0.0657,0.0427,0.0791,–,0.084,–,–,0.0603,–,–,–,0.066,0.0552
I15T,0.0748,0.0634,0.0627,0.0661,0.0721,0.0591,0.0633,0.0602,0.0574,0.0559,–,0.0642,0.0586,–,–,0.0686,0.0645
V217K,0.0516,0.0591,–,0.0621,0.0756,0.0596,0.0448,–,0.0704,–,0.058,–,0.0664,–,–,–,0.0612
T233L,0.0672,–,0.062,0.0326,–,0.0681,0.0679,–,0.0599,0.0619,0.0567,0.0718,0.05,–,–,0.062,–
Q59P,0.0348,–,–,–,0.0237,–,0.0235,–,0.0454,–,–,–,–,0.0356,0.0455,–,0.0359
E223V,0.0629,0.0689,–,0.061,–,–,–,–,0.064,–,–,–,0.059,–,–,0.0715,–
Q105S,0.0556,0.0695,0.0652,–,0.051,–,0.0774,–,0.0613,0.0466,0.0443,0.0713,0.0444,–,–,0.0582,0.0751

# From the supplement of paper PMC12217912
